# Test results taken from the supplement of paper PMC8728848.
# Some of the results follow.
# Experiments:
# Test in all cases: glycan array binding signal (z-score within array); higher = stronger binding
# Conditions in all cases: glycan notation: IUPAC condensed, linker removed
# [1] = biological target: Gal(b1-4)GlcNAc(b1-2)[Gal(b1-4)GlcNAc(b1-6)]Man(a1-6)[GlcNAc(b1-4)][Gal(b1-4)GlcNAc(b1-2)Man(a1-3)]Man(b1-4)GlcNAc(b1-4)GlcNAc
# Summary of the method: (§1)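 From the Consortium for Functional Glycomics database, 3228 arrays were curated, keeping only those whose protein sequence was available. Binding is given as a within-array Z-score averaged across arrays sharing a protein sequence and across linkers. Negative Z-scores can be read as non-binding.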
# [2] = biological target: Gal(b1-4)GlcNAc(b1-2)[Gal(b1-4)GlcNAc(b1-6)]Man(a1-6)[GlcNAc(b1-4)][Gal(b1-4)GlcNAc(b1-2)[Gal(b1-4)GlcNAc(b1-4)]Man(a1-3)]Man(b1-4)GlcNAc(b1-4)[Fuc(a1-6)]GlcNAc
# Summary of the method: as §1
# [3] = biological target: Gal(b1-4)GlcNAc(b1-3)Gal(b1-3)GalNAc
# Summary of the method: as §1
# [4] = biological target: Gal(b1-4)GlcNAc(b1-3)Gal(b1-3)GlcNAc
# Summary of the method: as §1
# [5] = biological target: Gal(b1-4)GlcNAc(b1-3)Gal(b1-4)Glc
# Summary of the method: as §1
# [6] = biological target: Gal(b1-4)GlcNAc(b1-3)Gal(b1-4)GlcNAc
# Summary of the method: as §1
# [7] = biological target: Gal(b1-4)GlcNAc(b1-3)Gal(b1-4)GlcNAc(b1-2)Man(a1-3)[Gal(b1-4)GlcNAc(b1-3)Gal(b1-4)GlcNAc(b1-2)Man(a1-6)]Man(b1-4)GlcNAc(b1-4)GlcNAc
# Summary of the method: as §1
# [8] = biological target: Gal(b1-4)GlcNAc(b1-3)Gal(b1-4)GlcNAc(b1-2)Man(a1-3)[Gal(b1-4)GlcNAc(b1-3)Gal(b1-4)GlcNAc(b1-2)Man(a1-6)]Man(b1-4)GlcNAc(b1-4)[Fuc(a1-6)]GlcNAc
# Summary of the method: as §1
# [9] = biological target: Gal(b1-4)GlcNAc(b1-3)Gal(b1-4)GlcNAc(b1-2)[Gal(b1-4)GlcNAc(b1-3)Gal(b1-4)GlcNAc(b1-6)]Man(a1-6)[Gal(b1-4)GlcNAc(b1-3)Gal(b1-4)GlcNAc(b1-2)Man(a1-3)]Man(b1-4)GlcNAc(b1-4)GlcNAc
# Summary of the method: as §1
# [10] = biological target: Gal(b1-4)GlcNAc(b1-3)Gal(b1-4)GlcNAc(b1-2)[Gal(b1-4)GlcNAc(b1-3)Gal(b1-4)GlcNAc(b1-6)]Man(a1-6)[Gal(b1-4)GlcNAc(b1-3)Gal(b1-4)GlcNAc(b1-2)Man(a1-3)]Man(b1-4)GlcNAc(b1-4)[Fuc(a1-6)]GlcNAc
# Summary of the method: as §1
# [11] = biological target: Gal(b1-4)GlcNAc(b1-3)Gal(b1-4)GlcNAc(b1-3)Gal(b1-4)GlcNAc
# Summary of the method: as §1
# [12] = biological target: Gal(b1-4)GlcNAc(b1-3)Gal(b1-4)GlcNAc(b1-3)Gal(b1-4)GlcNAc(b1-2)Man(a1-3)[Gal(b1-4)GlcNAc(b1-3)Gal(b1-4)GlcNAc(b1-3)Gal(b1-4)GlcNAc(b1-2)Man(a1-6)]Man(b1-4)GlcNAc(b1-4)GlcNAc
# Summary of the method: as §1
# [13] = biological target: Gal(b1-4)GlcNAc(b1-3)Gal(b1-4)GlcNAc(b1-3)Gal(b1-4)GlcNAc(b1-2)Man(a1-3)[Gal(b1-4)GlcNAc(b1-3)Gal(b1-4)GlcNAc(b1-3)Gal(b1-4)GlcNAc(b1-2)Man(a1-6)]Man(b1-4)GlcNAc(b1-4)[Fuc(a1-6)]GlcNAc
# Summary of the method: as §1
# [14] = biological target: Gal(b1-4)GlcNAc(b1-3)Gal(b1-4)GlcNAc(b1-3)Gal(b1-4)GlcNAc(b1-2)[Gal(b1-4)GlcNAc(b1-3)Gal(b1-4)GlcNAc(b1-3)Gal(b1-4)GlcNAc(b1-6)]Man(a1-6)[Gal(b1-4)GlcNAc(b1-3)Gal(b1-4)GlcNAc(b1-3)Gal(b1-4)GlcNAc(b1-2)Man(a1-3)]Man(b1-4)GlcNAc(b1-4)[Fuc(a1-6)]GlcNAc
# Summary of the method: as §1
# [15] = biological target: Gal(b1-4)GlcNAc(b1-3)Gal(b1-4)GlcNAc(b1-3)Gal(b1-4)GlcNAc(b1-3)Gal(b1-4)GlcNAc(b1-2)Man(a1-3)[Gal(b1-4)GlcNAc(b1-3)Gal(b1-4)GlcNAc(b1-3)Gal(b1-4)GlcNAc(b1-3)Gal(b1-4)GlcNAc(b1-2)Man(a1-6)]Man(b1-4)GlcNAc(b1-4)GlcNAc
# Summary of the method: as §1
# [16] = biological target: Gal(b1-4)GlcNAc(b1-3)Gal(b1-4)GlcNAc(b1-3)Gal(b1-4)GlcNAc(b1-3)Gal(b1-4)GlcNAc(b1-2)Man(a1-3)[Gal(b1-4)GlcNAc(b1-3)Gal(b1-4)GlcNAc(b1-3)Gal(b1-4)GlcNAc(b1-3)Gal(b1-4)GlcNAc(b1-2)Man(a1-6)]Man(b1-4)GlcNAc(b1-4)[Fuc(a1-6)]GlcNAc
# Summary of the method: as §1
# [17] = biological target: Gal(b1-4)GlcNAc(b1-3)Gal(b1-4)GlcNAc(b1-3)Gal(b1-4)GlcNAc(b1-3)Gal(b1-4)GlcNAc(b1-2)[Gal(b1-4)GlcNAc(b1-3)Gal(b1-4)GlcNAc(b1-3)Gal(b1-4)GlcNAc(b1-3)Gal(b1-4)GlcNAc(b1-6)]Man(a1-6)[Gal(b1-4)GlcNAc(b1-3)Gal(b1-4)GlcNAc(b1-3)Gal(b1-4)GlcNAc(b1-3)Gal(b1-4)GlcNAc(b1-2)Man(a1-3)]Man(b1-4)GlcNAc(b1-4)[Fuc(a1-6)]GlcNAc
# Summary of the method: as §1
# [18] = biological target: Gal(b1-4)GlcNAc(b1-3)Gal(b1-4)GlcNAc(b1-3)Gal(b1-4)GlcNAc(b1-3)Gal(b1-4)GlcNAc(b1-3)Gal(b1-4)GlcNAc(b1-2)Man(a1-3)[Gal(b1-4)GlcNAc(b1-3)Gal(b1-4)GlcNAc(b1-3)Gal(b1-4)GlcNAc(b1-3)Gal(b1-4)GlcNAc(b1-3)Gal(b1-4)GlcNAc(b1-2)Man(a1-6)]Man(b1-4)GlcNAc(b1-4)GlcNAc
# Summary of the method: as §1
# [19] = biological target: Gal(b1-4)GlcNAc(b1-3)Gal(b1-4)GlcNAc(b1-3)Gal(b1-4)GlcNAc(b1-3)Gal(b1-4)GlcNAc(b1-3)Gal(b1-4)GlcNAc(b1-2)Man(a1-3)[Gal(b1-4)GlcNAc(b1-3)Gal(b1-4)GlcNAc(b1-3)Gal(b1-4)GlcNAc(b1-3)Gal(b1-4)GlcNAc(b1-3)Gal(b1-4)GlcNAc(b1-2)Man(a1-6)]Man(b1-4)GlcNAc(b1-4)[Fuc(a1-6)]GlcNAc
# Summary of the method: as §1
# [20] = biological target: Gal(b1-4)GlcNAc(b1-3)Gal(b1-4)GlcNAc(b1-3)Gal(b1-4)GlcNAc(b1-3)Gal(b1-4)GlcNAc(b1-3)Gal(b1-4)GlcNAc(b1-2)[Gal(b1-4)GlcNAc(b1-3)Gal(b1-4)GlcNAc(b1-3)Gal(b1-4)GlcNAc(b1-3)Gal(b1-4)GlcNAc(b1-3)Gal(b1-4)GlcNAc(b1-6)]Man(a1-6)[Gal(b1-4)GlcNAc(b1-3)Gal(b1-4)GlcNAc(b1-3)Gal(b1-4)GlcNAc(b1-3)Gal(b1-4)GlcNAc(b1-3)Gal(b1-4)GlcNAc(b1-2)Man(a1-3)]Man(b1-4)GlcNAc(b1-4)[Fuc(a1-6)]GlcNAc
# Summary of the method: as §1
# [21] = biological target: Gal(b1-4)GlcNAc(b1-3)Gal(b1-4)GlcNAc(b1-3)Gal(b1-4)GlcNAc(b1-3)Gal(b1-4)GlcNAc(b1-3)Gal(b1-4)GlcNAc(b1-3)Gal(b1-4)GlcNAc(b1-2)Man(a1-3)[Gal(b1-4)GlcNAc(b1-3)Gal(b1-4)GlcNAc(b1-3)Gal(b1-4)GlcNAc(b1-3)Gal(b1-4)GlcNAc(b1-3)Gal(b1-4)GlcNAc(b1-3)Gal(b1-4)GlcNAc(b1-2)Man(a1-6)]Man(b1-4)GlcNAc(b1-4)GlcNAc
# Summary of the method: as §1
# [22] = biological target: Gal(b1-4)GlcNAc(b1-3)Gal(b1-4)GlcNAc(b1-3)GalNAc
# Summary of the method: as §1
# [23] = biological target: Gal(b1-4)GlcNAc(b1-3)Gal(b1-4)GlcNAc(b1-3)[Gal(b1-4)GlcNAc(b1-3)Gal(b1-4)GlcNAc(b1-6)]GalNAc
# Summary of the method: as §1
binder,measurement,setting,value
Arath Fbox LD (Arabidopsis thaliana) (protein) EFSVWLEKASGKRCLMLSAMNLSIIWGDNPQYWQWIPIPESRFEKVAKLRDVCWFEIRGRTNTRVLSPRTRYSAYIVFKGVDKCYGFQNVAIEAAVGVVGQEPSRRLICFSEAIRRGRRNVVKPKQREDGWMEIELGEFFNDGGIMDNDEIEMSALETKQLNRKCGLIIQGIEIRPAKILAAASFLEQKLISEEDLNSAVDHHHHHH,glycan array binding signal (z-score),[1],0.488
same,glycan array binding signal (z-score),[2],0.077
same,glycan array binding signal (z-score),[3],0.006
same,glycan array binding signal (z-score),[4],-0.488
same,glycan array binding signal (z-score),[5],0.088
same,glycan array binding signal (z-score),[6],-0.405
same,glycan array binding signal (z-score),[7],0.039
same,glycan array binding signal (z-score),[8],-0.519
same,glycan array binding signal (z-score),[9],1.59
same,glycan array binding signal (z-score),[10],-0.085
same,glycan array binding signal (z-score),[11],0.403
same,glycan array binding signal (z-score),[12],0.028
same,glycan array binding signal (z-score),[13],-0.363
same,glycan array binding signal (z-score),[14],0.105
same,glycan array binding signal (z-score),[15],-0.324
same,glycan array binding signal (z-score),[16],-0.558
same,glycan array binding signal (z-score),[17],-0.089
same,glycan array binding signal (z-score),[18],-0.532
same,glycan array binding signal (z-score),[19],-0.468
same,glycan array binding signal (z-score),[20],0.086
same,glycan array binding signal (z-score),[21],-0.201
same,glycan array binding signal (z-score),[22],-0.395
same,glycan array binding signal (z-score),[23],-0.532
